Each structure is given as a SMILES string. About 14,000 (4.5%) of roughly 310,000 compounds showed an effect of 50% or more. The effect is printed as a negative number. The list shows a part of the results.
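Note: peak tail current of the secondary pulse compared with the same well before compound.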

In this experiment the target is human ether-à-go-go-related gene (hERG) potassium channel (human, UniProt Q12809). Kind of experiment: primary screen, population patch clamp on CHO cells stably expressing hERG.
human ether-à-go-go-related gene (hERG) potassium channel, sequence (Q12809 whole entry, looked up): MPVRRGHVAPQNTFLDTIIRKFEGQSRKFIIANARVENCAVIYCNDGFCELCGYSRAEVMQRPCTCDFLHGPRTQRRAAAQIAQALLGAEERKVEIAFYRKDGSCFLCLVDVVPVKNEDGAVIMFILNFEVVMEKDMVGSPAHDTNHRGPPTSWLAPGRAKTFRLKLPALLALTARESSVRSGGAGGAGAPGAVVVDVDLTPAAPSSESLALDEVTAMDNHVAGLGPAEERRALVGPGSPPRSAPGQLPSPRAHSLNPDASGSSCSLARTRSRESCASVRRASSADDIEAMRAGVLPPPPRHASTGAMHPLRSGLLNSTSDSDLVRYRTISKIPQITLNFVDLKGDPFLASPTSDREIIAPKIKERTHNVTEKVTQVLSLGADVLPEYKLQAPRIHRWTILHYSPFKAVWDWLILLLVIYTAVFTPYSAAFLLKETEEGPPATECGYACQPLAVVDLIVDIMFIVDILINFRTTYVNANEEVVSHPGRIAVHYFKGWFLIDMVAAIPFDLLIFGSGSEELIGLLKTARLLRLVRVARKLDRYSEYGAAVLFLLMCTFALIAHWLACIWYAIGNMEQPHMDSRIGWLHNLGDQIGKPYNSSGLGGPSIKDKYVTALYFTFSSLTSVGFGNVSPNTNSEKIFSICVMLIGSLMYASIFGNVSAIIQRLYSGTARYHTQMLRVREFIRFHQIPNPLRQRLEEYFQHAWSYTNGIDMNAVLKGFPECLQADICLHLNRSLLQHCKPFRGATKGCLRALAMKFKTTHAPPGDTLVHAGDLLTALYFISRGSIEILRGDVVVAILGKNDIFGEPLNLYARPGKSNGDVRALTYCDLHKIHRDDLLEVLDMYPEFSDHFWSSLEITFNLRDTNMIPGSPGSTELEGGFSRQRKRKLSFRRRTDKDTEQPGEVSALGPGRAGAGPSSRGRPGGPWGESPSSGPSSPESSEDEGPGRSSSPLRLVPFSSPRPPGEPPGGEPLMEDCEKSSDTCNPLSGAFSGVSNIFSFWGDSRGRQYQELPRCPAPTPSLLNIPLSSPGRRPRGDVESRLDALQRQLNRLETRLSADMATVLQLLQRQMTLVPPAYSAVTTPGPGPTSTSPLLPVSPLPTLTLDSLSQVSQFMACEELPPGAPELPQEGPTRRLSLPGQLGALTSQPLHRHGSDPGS
On to `CCOC(=O)c1cccc(NC(=O)CSc2nnc(COc3ccccc3C)o2)c1`, for which the “hERG current change (%, negative = inhibition) at 10uM” value is given as 4.78%.
With `O=C(O)/C=C/C(=O)NC1CCS(=O)(=O)C1` (centres unmarked) the figure was 5.77%; with `CC(NC(=S)Nc1ccccc1Cl)C(c1cccs1)N1CCCC1` (centres unmarked), -10.2%.
`Br.O=C(CN1CCCCC1)c1ccccc1F`: the “hERG current change (%, negative = inhibition) at 10uM” value is 24%.
For the molecule `Cc1cc(C2C(C#N)=C(N)OC3=C2C(=O)CC(C)(C)C3)c(C)s1` (centres unmarked), the “hERG current change (%, negative = inhibition) at 10uM” value was -25.3%.
As to `CSc1cccc(CN2CCC(CCC(=O)NC3CC3)CC2)c1`, the “hERG current change (%, negative = inhibition) at 10uM” value is listed as -62.6%.
As to `Cc1ccc2cc(/C=C/C(=O)c3ccco3)c(Cl)nc2c1`, the “hERG current change (%, negative = inhibition) at 10uM” value was found to be 15.2%.
In the case of `Cc1cc(NS(=O)(=O)c2ccc(NC(=O)c3cccnc3)cc2)nc(C)n1`, the “hERG current change (%, negative = inhibition) at 10uM” value was determined as 8.95%.
For the molecule `COc1ccc(CCNC(=O)CSc2nc(C)nc3c2oc2ccccc23)cc1OC`, the “hERG current change (%, negative = inhibition) at 10uM” value is -9.54%.
Consider `O=C(COC(=O)c1ccc[nH]c1=O)c1ccc(Cl)s1`, for which the “hERG current change (%, negative = inhibition) at 10uM” value was 17.8%.
As for `Cc1nnc(SCC(=O)N/N=C/c2cn(-c3ccccc3)nc2-c2ccccc2)n1-c1ccccc1`, the “hERG current change (%, negative = inhibition) at 10uM” value is -2.56%.
Take `COc1ccc(CC(=O)N2CCN(c3ccc(F)cc3)CC2)cc1`: the “hERG current change (%, negative = inhibition) at 10uM” value turned out to be 1.52%.
`CCC(C)[C@H](NC(=O)Nc1ccc2c(c1)OCCO2)C(=O)OC` (some centres unmarked): the “hERG current change (%, negative = inhibition) at 10uM” value is 15.4%.
Regarding `COc1ccc(OC)c(CN2CCN(Cc3cccc4ccccc34)CC2)c1.O=C(O)C(=O)O`, the “hERG current change (%, negative = inhibition) at 10uM” value is listed as -65.2%.
`Cc1oc2nc(SCCCC(=O)NCCO)nc(N)c2c1C`: the “hERG current change (%, negative = inhibition) at 10uM” value is 2.88%.
For `Cc1c(Cl)cccc1NC(=O)CC(C(=O)O)C1CCCO1` (centres unmarked) the value was -6.16%.
With `CC1CC(C)CN(CC(=O)N2CCc3[nH]c4ccccc4c3C2)C1` (centres unmarked), the “hERG current change (%, negative = inhibition) at 10uM” value is listed as -30.3%.
Turning to `COc1ccc(/C=C2\CN(Cc3ccccc3)C/C(=C\c3ccc(OC)cc3)C2=O)cc1`, the “hERG current change (%, negative = inhibition) at 10uM” value stood at 3.8%.
`CC(=O)c1cc(CN2CCC(n3nccc3NC(=O)c3ccccc3C)CC2)cs1`: the “hERG current change (%, negative = inhibition) at 10uM” value is reported as -57.8%.
For `COC(=O)c1cn(-c2ccc(F)cc2)c(=O)c2ccccc12` the value was -17.2%.
For the molecule `CCc1ccc(N(C(C)=O)c2nc(CCl)cs2)cc1`, the “hERG current change (%, negative = inhibition) at 10uM” value is reported as -15.1%.
On to `COc1c(N2CCN(C(=S)NCc3ccccc3)C(C)C2)c(F)cc2c(=O)c(C(=O)O)cn(C3CC3)c12` (centres unmarked), for which the “hERG current change (%, negative = inhibition) at 10uM” value is -4.47%.
For the molecule `O=C(CCl)NC1(C(F)(F)F)C(=O)Nc2c1c(=O)[nH]c(=O)n2-c1ccccc1` (centres unmarked), the “hERG current change (%, negative = inhibition) at 10uM” value is 8.08%.
With `COc1ccc(C(=O)OCCCOC(=O)c2ccc(OC)cc2OC)c(OC)c1` the figure was 7.08%; with `CC1CCCCC1NC(=O)C1CCC(CNS(=O)(=O)c2ccc(F)cc2)CC1` (centres unmarked), 11.5%.
Consider `Cc1ccccc1OCCN1C(=O)C(=O)c2cccc(C)c21`, for which the “hERG current change (%, negative = inhibition) at 10uM” value stood at 10.8%.
On to `O=C(NC1=NCCS1)c1cc(-c2cccs2)nc2ccccc12`, for which the “hERG current change (%, negative = inhibition) at 10uM” value is -9.23%.
Consider `CC(=O)Nc1ccc(Nc2nc3c(S(=O)(=O)c4ccc(C)c(C)c4)nnn3c3ccccc23)cc1`, for which the “hERG current change (%, negative = inhibition) at 10uM” value is recorded as 23.3%.
As to `CCN(CC)S(=O)(=O)c1cccc(C(=O)NNC(=O)c2ccc3[nH]c(=O)c(=O)[nH]c3c2)c1`, the “hERG current change (%, negative = inhibition) at 10uM” value is given as 16.1%.
For the molecule `CCCn1c(C(O)c2ccc3c(c2)OCO3)nc2ccccc21` (centres unmarked), the “hERG current change (%, negative = inhibition) at 10uM” value is given as -18%.
Regarding `O=C(C1CCC(CNS(=O)(=O)c2cccc3cccnc23)CC1)N1CCCC1` (centres unmarked), the “hERG current change (%, negative = inhibition) at 10uM” value is given as 8.93%.
For `COc1cc(/C=C2/C(=O)NN(c3cccc(C)c3)C2=O)cc([N+](=O)[O-])c1O`, the “hERG current change (%, negative = inhibition) at 10uM” value is -19.1%.
With `COc1ccccc1OCC(=O)[O-].[Na+]` the figure was 4.6%; with `Cc1nn(-c2cc(N3CCNCC3)ccc2[N+](=O)[O-])c(=O)c2ccccc12`, -11.4%.
Regarding `COc1ccc(NC(=O)Cn2c(=O)oc3cc(S(=O)(=O)N4CCCC4)ccc32)cc1`, the “hERG current change (%, negative = inhibition) at 10uM” value is given as 5.26%.
Take `O=C(Nc1ccc2[nH]c3c(c2c1)CCCC3)c1ccco1`: the “hERG current change (%, negative = inhibition) at 10uM” value is given as -3.4%.
On to `COC(=O)c1ccccc1NC(=O)CSc1ccc(C)cc1`, for which the “hERG current change (%, negative = inhibition) at 10uM” value is reported as -0.828%.
For `CCCSc1nc2c(=O)[nH][nH]c(=O)c2n1Cc1ccccc1` the value was 1.87%; for `CC(=O)Nc1ccccc1OCC(=O)NCCc1ccc(Cl)cc1Cl`, -10%.
Take `CC(C)CN(CC(C)C)C(=O)C12CCC(C)(C(=O)O1)C2(C)C` (centres unmarked): the “hERG current change (%, negative = inhibition) at 10uM” value is 5.16%.
With `COc1cc2c(cc1OC)CN(CCC(C)c1ccc(Cl)cc1)CC2.O=C(O)/C=C\C(=O)O` (centres unmarked), the “hERG current change (%, negative = inhibition) at 10uM” value is on record as -72.1%.
In the case of `CC(NC(=O)Cc1ccc(-c2ccccc2)cc1)c1ccccc1` (centres unmarked), the “hERG current change (%, negative = inhibition) at 10uM” value amounted to 5.89%.
For the molecule `CC1=C[C@@H](C)[C@@H](c2ccccc2)OC1=O`, the “hERG current change (%, negative = inhibition) at 10uM” value is 3.06%.
In the case of `Cc1nc2nc(C)c(NS(=O)(=O)c3ccc(Cl)cc3)c(=O)n2[nH]1`, the “hERG current change (%, negative = inhibition) at 10uM” value is listed as 7.32%.
For `CCCCn1c(N)c(N(CC(C)C)C(=O)C2CCN(c3ncnc4sc(C)c(C)c34)CC2)c(=O)[nH]c1=O` the value was -26.4%; for `CCOc1ccc(OCC)c(NC(=O)CSc2nnc(C3CC3)n2CC)c1`, -19%; for `CC(=O)NC12CC3CC(C1)CC(C(=O)OCC(=O)Nc1c(F)cccc1F)(C3)C2`, 10.7%.
Take `COc1ccc(N2C(=O)C3CCCN3C2c2cccc(F)c2)cc1Cl` (centres unmarked): the “hERG current change (%, negative = inhibition) at 10uM” value is on record as -11.8%.
As for `CN(CCO)c1ccc(-c2n[nH]c(=O)c3ccccc23)cc1[N+](=O)[O-]`, the “hERG current change (%, negative = inhibition) at 10uM” value is given as -7.99%.
In the case of `CCCCCSc1cc(OC)c(CCNC)cc1OC.O=C(O)/C=C\C(=O)O`, the “hERG current change (%, negative = inhibition) at 10uM” value is listed as -48.2%.
Regarding `COc1cccc2cc(C(C)N(CCCN3CCOCC3)C(=S)Nc3cccc(C)c3)oc12` (centres unmarked), the “hERG current change (%, negative = inhibition) at 10uM” value amounted to 14.8%.
As for `O=C(Nc1ccc(N2CCOCC2)nc1)c1c(F)cccc1F`, the “hERG current change (%, negative = inhibition) at 10uM” value is 16.5%.
For `COC(=O)c1ccccc1Oc1ccc(NC(=O)C(C)(C)CCl)cc1` the value was -2.32%.
As to `Cc1cc(=O)[nH]c(N2CCc3ccccc3C2)n1`, the “hERG current change (%, negative = inhibition) at 10uM” value was -5.68%.
For `Cc1cccc(NC(=O)c2c(F)c(F)c(F)c(F)c2F)c1`, the “hERG current change (%, negative = inhibition) at 10uM” value was found to be 0.917%.
With `CC(C)OCCCNC(=O)c1c(N)n(CC2CCCO2)c2nc3ccccc3nc12` (centres unmarked) the figure was -17.6%.

Source of the values: article PMC4336329 (PLoS ONE, 2015).
